SMILES strings stand for the structures. Values joined by “and” are separate entries in the source; they are usually repeats but may differ in a detail not shown here. Equal values may be shown once. Hit rate of the full screen: of about 72,000 compounds, about 1,600 (2.2%) were called active. The call rests on the fitted dose curve; in most records, active means well fitted inhibition curve with a large enough effect; inconclusive means small, poorly fitted or top-dose-only effect; inactive means flat fitted curve, though single readings scatter. This is a selection; strong and weak results do not stand in their true shares.

The assay has as its target Luciferin 4-monooxygenase (Photinus pyralis) (UniProt P08659). Nature of the assay: qHTS Assay for Inhibitors of Firefly Luciferase. Further: nearly all actives have a fitted effect of over 40% in size. Conditions: purified firefly luciferase, luminescence, 8 min. How it is done:
To aid in the interpretation of high-throughput screening (HTS) results derived from luciferase-based assays, we used quantitative HTS, an approach that defines the concentration-response behavior of each library sample, to profile the ATP-dependent luciferase from Photinus pyralis against more than 72 000 samples. Luciferase (PKLight, Cambrex Corporation) was assayed for its ability to generate light using ATP and luciferin as substrates. The ATP concentration in the assay (10 uM) was within the linear range of enzyme activity for the assay conditions used. See following reference for further details: [1] Auld DS, Southall NT, Jadhav A, Johnson RL, Diller DJ, Simeonov A, Austin CP, Inglese J. Characterization of chemical libraries for luciferase inhibitory activity. J Med Chem. 2008 Apr 24;51(8):2372-86. Auld DS, Zhang YQ, Southall NT, Rai G, Landsman M, Maclure J, Langevin D, Thomas CJ, Austin CP, Inglese J. A Basis for Reduced Chemical Library Inhibition of Firefly Luciferase Obtained from Directed Evolution. J. Med. Chem., 2009, 52 (5), pp 1450#1458 [3] Auld DS, Thorne N, Nguyen DT, Inglese J. A specific mechanism for nonspecific activation in reporter-gene assays. ACS Chem Biol. 2008 Aug 15;3(8):463-70. Auld DS, Thorne N, Maguire WF, Inglese J. Mechanism of PTC124 activity in cell-based luciferase assays of nonsense codon suppression. Proc Natl Acad Sci U S A. 2009 Mar 3;106(9):3585-90. Inglese J, Auld DS, Jadhav A, Johnson RL, Simeonov A, Yasgar A, Zheng W, Austin CP. Quantitative high-throughput screening: a titration-based approach that efficiently identifies biological activities in large chemical libraries. Proc Natl Acad Sci U S A. 2006 Aug 1;103(31):11473-8.
Four uL of substrate mix (final concentration, 50 mM imidazole pH 7.2, 50 mM KCl, 7 mM MgCl2, 10 uM ATP, 0.01% Tween 20, 0.05% BSA) was dispensed into white 1536 well plates. Twenty-three nL of compound was delivered by a pin tool and 2 uL of luciferase detector mix (PKLight, Cambrex) was added. Following 8-minute incubation at ambient temperature, luminescence was measured by a ViewLux (Perkin Elmer) at 5 seconds exposure/plate.
Background: Quantitative high-throughput screening tests each substance at several concentrations.
On the % scale 0 is the no-effect control and ±100 the full control effect.

Sequence of UniProt P08659 (P08659 whole entry, looked up): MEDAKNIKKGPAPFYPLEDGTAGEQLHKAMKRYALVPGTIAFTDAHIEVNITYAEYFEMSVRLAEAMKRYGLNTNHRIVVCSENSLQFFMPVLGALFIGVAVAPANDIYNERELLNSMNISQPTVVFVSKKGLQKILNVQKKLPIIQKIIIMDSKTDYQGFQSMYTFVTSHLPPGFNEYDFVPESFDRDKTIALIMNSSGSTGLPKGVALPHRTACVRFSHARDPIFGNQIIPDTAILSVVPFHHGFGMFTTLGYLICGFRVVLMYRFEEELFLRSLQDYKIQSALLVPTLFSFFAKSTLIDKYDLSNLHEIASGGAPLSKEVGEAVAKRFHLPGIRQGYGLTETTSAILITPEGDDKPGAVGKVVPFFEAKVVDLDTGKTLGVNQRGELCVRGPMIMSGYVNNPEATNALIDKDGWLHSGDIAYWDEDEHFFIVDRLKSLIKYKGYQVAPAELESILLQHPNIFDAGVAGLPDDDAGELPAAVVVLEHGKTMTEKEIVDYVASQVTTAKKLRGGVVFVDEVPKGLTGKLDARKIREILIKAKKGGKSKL

Consider `CCCN1CCO[C@@H]2c3cc(O)ccc3OC[C@H]21`, for which the activity change, negative = inhibition (at 57.1 µM (top of the series)) was inactive: 1.22% and inactive: 0.504%.

With `O[C@H]1CCCC[C@H]1N1CCC(c2ccccc2)CC1`, the activity change, negative = inhibition is inactive: 4.99% (at 25.5 µM (top of the series)) and inactive: 0.481% (at 57.1 µM (top of the series)).

In the case of `O[C@@H]1CCCC[C@H]1N1CCC(c2ccccc2)CC1`, the activity change, negative = inhibition (at 57.1 µM (top of the series)) was inactive: 1.11%.

Source of the values: PubChem BioAssay AID411 (National Center for Advancing Translational Sciences (NCATS), 2006).
